In patent US20160152714A1 (Chugai, published 2016):

Molecular target: T1, soluble IL-6 receptor (UniProt P08887 20-344, limits assumed)
T1 construct: The background says soluble IL-6R consists mainly of the extracellular region
T1 sequence (looked up): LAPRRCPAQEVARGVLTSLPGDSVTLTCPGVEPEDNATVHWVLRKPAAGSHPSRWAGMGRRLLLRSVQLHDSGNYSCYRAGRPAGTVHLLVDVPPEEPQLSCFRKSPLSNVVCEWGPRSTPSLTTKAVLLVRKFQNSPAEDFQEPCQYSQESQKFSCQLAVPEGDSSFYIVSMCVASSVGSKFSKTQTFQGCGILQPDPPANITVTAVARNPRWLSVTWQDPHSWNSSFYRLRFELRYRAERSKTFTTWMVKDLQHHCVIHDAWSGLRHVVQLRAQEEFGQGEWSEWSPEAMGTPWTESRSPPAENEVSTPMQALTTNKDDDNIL
Test: competition ELISA on captured soluble IL-6 receptor, competitor biotinylated MRA; parallel line test (3+3)

- Activity: 1130
B1: humanized PM-1 antibody subtype 1 (antibody, human IgG1, kappa)
heavy 1: QVQLQESGPGLVRPSQTLSLTCTVSGYSITSDHAWSWVRQPPGRGLEWIGYISYSGITTYNPSLKSRVTMLRDTSKNQFSLRLSSVTAADTAVYYCARSLARTTAMDYWGQGSLVTVSS[human IgG1 constant region not spelt out]
heavy 2: B1 heavy 1
light: DIQMTQSPSSLSASVGDRVTITCRASQDISSYLNWYQQKPGKAPKLLIYYTSRLHSGVPSRFSGSGSGTDFTFTISSLQPEDIATYYCQQGNTLPYTFGQGTKVEIKRTVAAPSVFIFPPSDEQLKSGTASVVCLLNNFYPREAKVQWKVDNALQSGNSQESVTEQDSKDSTYSLSSTLTLSKADYEKHKVYACEVTHQGLSSPVTKSFNRGEC
modifications: C-terminal Pro-NH2 (447), Gly 448 lost
notes: Only one of the two heavy chains is amidated (C-terminal SLSLSP-NH2), the other ends in SLSLSPG; The N-terminal Gln of the heavy chain 'may be' pyroglutamylated
